The other results are listed elsewhere or left out. Values were computed here from the reads of four pooled replicates and scatter widely.
molecular target: T1, Pho4 (S. cerevisiae) (UniProt P07270); experiment: relative binding free energy (BET-seq); higher = weaker binding; details: reference: library average
T1 sequence: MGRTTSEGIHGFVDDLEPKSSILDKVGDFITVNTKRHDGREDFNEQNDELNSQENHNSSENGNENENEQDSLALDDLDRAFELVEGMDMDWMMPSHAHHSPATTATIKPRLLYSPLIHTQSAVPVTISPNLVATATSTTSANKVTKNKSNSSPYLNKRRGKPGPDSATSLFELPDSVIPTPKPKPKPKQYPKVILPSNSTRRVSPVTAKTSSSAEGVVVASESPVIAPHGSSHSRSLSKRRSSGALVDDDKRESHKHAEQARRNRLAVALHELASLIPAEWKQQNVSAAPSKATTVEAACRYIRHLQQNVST

Row | Sequence | relative binding free energy [kcal/mol]
1 | ATAAGCACGTGTGATA | 0.05
2 | GGGGCCACGTGTATTA | 0.04
3 | GTTGGCACGTGATCGG | 0.03
4 | TTGGACACGTGGCCTG | -0.02
5 | CGTCACACGTGTGGTG | -0.02
6 | ATGCGCACGTGGCGTG | -0.29
7 | TCACTCACGTGTGGGG | 0.21
8 | TAGAACACGTGGGTTT | -0.08
9 | GGATACACGTGCTAGG | 0.12
10 | GTATGCACGTGGCGGA | -0.19
11 | TTTTTCACGTGAACAT | 0.23
12 | TGAGCCACGTGGTAGT | -0.28
13 | GAATGCACGTGGGAGA | -0.09
14 | GCGAGCACGTGGGGAT | -0.16
15 | GTGATCACGTGTTATG | 0.14
16 | TAATTCACGTGCTATG | 0.22
17 | ATAAACACGTGTAGTG | -0.02
18 | GGAGTCACGTGTGCAG | -0.04
19 | TCTTGCACGTGGGATT | -0.05
20 | ACTGTCACGTGTGTTT | 0
21 | CGGTGCACGTGTGTGG | 0.05
22 | GGGTGCACGTGCTTTA | -0.02
23 | GTGACCACGTGTGGGG | -0.02

Row | Sequence | relative binding free energy [kcal/mol]
24 | CTAAACACGTGGTTGT | -0.11
25 | TATTTCACGTGAGTCT | 0.37
26 | CAAAGCACGTGAGGTT | 0.29
27 | TTGAACACGTGTTGCG | -0.12
28 | AGCAACACGTGGGGGC | -0.08
29 | TCGGGCACGTGGCTGA | -0.08
30 | CTTCGCACGTGCGGGT | -0.03
31 | TTGATCACGTGTGATT | 0.09
32 | TTCAGCACGTGTTGGC | 0.17
33 | TGGGGCACGTGATGGC | 0.05
34 | GTTTACACGTGGTCAG | 0.06
35 | CGGCCCACGTGTGGGT | -0.04
36 | TAGAGCACGTGCGAGT | -0.13
37 | TTATACACGTGTGTGT | 0.03
38 | GGGGACACGTGGGTTC | -0.05
39 | TATGGCACGTGGGTTG | -0.17
40 | TGTCTCACGTGTGTAA | 0.26
41 | AAGGGCACGTGTGGGT | -0.15
42 | GGCTGCACGTGGGGCT | -0.12
43 | TAAGCCACGTGGTTGT | -0.06
44 | GTTGGCACGTGAACGT | 0.2
45 | AGTTACACGTGTGCTT | 0.07
46 | ACGTGCACGTGTAATG | -0.06

Row | Sequence | relative binding free energy [kcal/mol]
47 | TGAAGCACGTGCGGTA | -0.06
48 | GCAGGCACGTGTGATT | 0.03
49 | GTGTACACGTGTGACG | 0.11
50 | TTCGTCACGTGGGTGT | -0.02
51 | TGTAGCACGTGGGTAT | -0.14
52 | AGATTCACGTGTTTAG | 0.21
53 | AGGGGCACGTGACCGT | -0.03
54 | CGAGTCACGTGGATTT | 0.19
55 | TGAGGCACGTGTACTG | -0.17
56 | AAGGACACGTGCTGGT | -0.08
57 | AGAATCACGTGGTGTG | 0.05
58 | GAGCGCACGTGGGGGC | -0.22
59 | ATATTCACGTGTGGTT | 0.25
60 | AGTCACACGTGGGGTA | -0.17
61 | ATGTACACGTGTTCAT | 0.02
62 | GAGTGCACGTGATGAT | 0.37
63 | TTCGGCACGTGACTGG | 0.14
64 | AATCACACGTGTGGGT | 0.07
65 | AATCTCACGTGTTGGG | 0.17
66 | GTTTTCACGTGCAGGT | 0.39
67 | TAATTCACGTGGTGCT | 0.24
68 | TATTGCACGTGAAGAG | 0.11
69 | GGAGGCACGTGTATAA | -0.04

Row | Sequence | relative binding free energy [kcal/mol]
70 | TGATTCACGTGGTCTT | 0.18
71 | TTGGGCACGTGATTCA | -0.09
72 | TTTGGCACGTGCTTGG | -0.04
73 | TGTGACACGTGGTAGG | -0.03
74 | ACATTCACGTGAGGGT | 0.29
75 | GCTTTCACGTGTCTTG | 0.35
76 | GGGTGCACGTGCTATG | -0.05
77 | GTATACACGTGGTATC | 0.17
78 | GCGTGCACGTGGGGCA | -0.24
79 | GGTTTCACGTGTTGAA | 0.55
80 | GCGGGCACGTGGGGCC | -0.21
81 | CATTTCACGTGGTGTC | 0.13
82 | GGGTGCACGTGCGTAG | 0
83 | GCTTACACGTGCGTGG | 0.11
84 | TTCTTCACGTGTTCTT | 0.34
85 | TTGATCACGTGTTTAC | 0.05
86 | TCGGGCACGTGTGTGA | 0
87 | ATAATCACGTGAAATG | 0.43
88 | GAACGCACGTGTAGGT | 0.16
89 | TGAGGCACGTGTAAGG | -0.04
90 | GTTGGCACGTGTTAAC | 0.15
91 | GCCGTCACGTGTGTGT | 0.21
92 | CGCGTCACGTGGAGGG | 0.02

Row | Sequence | relative binding free energy [kcal/mol]
93 | TGTCTCACGTGGTTAA | 0.31
94 | GTAATCACGTGAGGTA | 0.42
95 | CAAAGCACGTGGGGAG | -0.11
96 | GATGACACGTGCGGTG | -0.06
97 | GTGAACACGTGTTATA | 0.07
98 | GGCTTCACGTGTGTGT | 0.24
99 | TGTTTCACGTGATAGT | 0.29
100 | TCTCGCACGTGGGTGG | -0.18
101 | ATAGTCACGTGCGTGT | -0.14
102 | AGGATCACGTGGCGTA | -0.04
103 | CTGGGCACGTGTAAGG | -0.08
104 | GGGTGCACGTGTCGAT | -0.03
105 | CTAAGCACGTGTGGTG | -0.06
106 | GAGTTCACGTGTTTGA | 0.32
107 | TTGGGCACGTGGAAAT | 0.04
108 | TTTGACACGTGGGCGC | -0.23
109 | ACGGTCACGTGGATGT | 0
110 | GTGTACACGTGTGGAA | -0.01
111 | TGATACACGTGTTGGA | -0.03
112 | TTAATCACGTGGAGGA | 0.01
113 | ATGGCCACGTGTGCGG | -0.21
114 | TAAGGCACGTGCGTTG | -0.11
115 | TTTAACACGTGCTTGA | 0.08

From the BET-seq Pho4 binding data (Le et al. 2018)
